# Laboratory results from the supplement of paper PMC10185492.
# The other results are listed elsewhere or left out. These are enrichments in a pooled selection; single values are uncertain.
# Test system: SARS-CoV-2 3CLpro (nsp5)
# Assay: substrate phage enrichment score (protease-eluted vs HEPES control, +1 offset) (ratio); higher = better cleaved substrate
# Conditions: selection round: 4; protease elution time: 15 min
# Protocol: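 Random heptapeptide substrate phage display (M13 pIII fusion, heptapeptide between an N-terminal biotinylated AviTag GLNDIFEAQKIEWHE and pIII; phages immobilised on streptavidin) eluted by cleavage with 50 nM protease in 20 mM HEPES at 37 °C. Selected phages were NGS sequenced, and the enrichment score is (reads in protease sample + 1)/(reads in HEPES blank-selection control + 1).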
row,Substance,substrate phage enrichment score
1,KRGTTPC,1.35
2,AAAAHHH,1.13
3,HALPKPP,> 29
4,YSQNDGT,> 159
5,LNRCTGR,1.88
6,LQGISRQ,5.5
7,SNAAHHH,1.03
8,RHLELNS,4.75
9,ERTPTTQ,> 43
10,KLETPCR,2.11
11,ASAHHHH,1.07
12,SHPQRLE,2.27
13,ESHQAAH,5.1
14,TRSCQQC,0.769
15,CLKTAML,1
16,CEAKNRS,1.27
17,SRATMPG,> 32
18,APRNVGV,> 25
19,LSAAHHH,0.706
20,NEKHTWI,0.222
21,TTGMPLH,> 23
22,DGGAKMS,> 26
23,PEPTMFQ,> 31
24,AYVKLQD,2.4

row,Substance,substrate phage enrichment score
1,VIEATPE,> 36
2,KCCTLQA,> 34
3,LAEYRDR,8
4,YSPCQDR,3.25
5,EPAAHHH,0.375
6,TERPHLH,18
7,CEAVKRP,0.263
8,KRDLNRL,2.25
9,AGQLQLN,1.75
10,AMRGEYR,0.476
11,GALRHVD,10.5
12,RGHVHCR,0.483
13,SAAAHNH,1.13
14,TVAAHHH,0.542
15,RIDQKPM,2.43
16,PKQYYIG,> 21
17,EAYSNLQ,> 48
18,LGLVCRG,> 36
19,RPAHSIR,4
20,VLQGRET,> 102
21,RNDVVQK,10
22,AGNGMPW,0.333
23,NYGQGRH,> 34
24,VPISVLQ,> 35

row,Substance,substrate phage enrichment score
1,QEFHTRA,> 34
2,QCKVRST,6.75
3,AGCESRG,0.24
4,ICNSGNE,1.09
5,TNRVNLQ,> 43
6,PMSKHWQ,11.5
7,CEAAHHH,1.06
8,HDNPRWT,> 21
9,SHARCYG,5
10,TPKCGPG,2.73
11,PVACQHA,0.143
12,SLPQTKD,1.88
13,SNSCYEW,7.2
14,CVHMQSG,> 88
15,GKLQSAT,> 85
16,ICTMSAT,1.05
17,QSYEVQA,9.17
18,QGNSPNP,0.37
19,DLWFTTR,0.923
20,HEECESG,6.67
21,GNHRVCS,> 32
22,PCQQYPC,> 31
23,VKATRTI,1.92
24,AHREEIP,0.953

row,Substance,substrate phage enrichment score
1,QNGTKTT,> 67
2,NRKSEST,0.714
3,REKHQQV,> 22
4,PNTTRQS,> 49
5,MKQPRPN,17.5
6,AKGTLTR,4
7,TTKLGRD,> 113
8,WKSHSGR,> 23
9,NCCSLRC,0.2
10,RAHVPTE,2.39
11,RTTTSPL,1.76
12,RQYFQGG,4.09
13,PGGQYHR,> 57
14,AGLMCSP,1.61
15,NTILQAD,> 63
16,VDTQAQH,1.67
17,DKRTTDW,> 123
18,VILQSCS,> 29
19,CYNSHAS,2.42
20,ELKSRQT,2.43
21,RDFCVLQ,> 64
22,SQPKPKP,1.09
23,NTQVSRF,0.912
24,SAATHHH,0.562

row,Substance,substrate phage enrichment score
1,VKTQASE,4.24
2,TKKHFGQ,0.68
3,NGRRGMN,2.46
4,KPILQSS,> 115
5,IDCRGLT,0.286
6,CAHTTLQ,> 44
7,LTGRGTY,11
8,TKCTGEC,6.11
9,DRADWKH,1.05
10,YHFPAQV,1.33
11,AAAPHHH,1.25
12,RVSNKTT,> 125
13,SAAAQHH,1.46
14,IKCPMLH,> 30
15,QLSRPVH,0.0714
16,PYNVRQT,> 21
17,ESERLPE,> 22
18,SKAARLQ,> 29
19,DPVRDGR,6.6
20,CQMQVRD,0.222
21,VEHGGDT,2.38
